# Results as given in the supplement of paper PMC12632987.
# Whole data set: some 4,500 sequences, median “median log2 fold change of GCK-ALFA target abundance (FLAG IP / Myc IP barcode read proportion)” near 0.078, cut for the lowest 2% near -0.6. This is one part of the list.
# B1: GBRAP_83_6893 (protein)
# chain: ETITVVGNDAESVAAAIDAAIDLSTEEGYEVVLELIVTPADLPTLEAGLDRLAAAGVKVDLEIVVVARTREEAEAAAARLRAHAEASGAARSVEVETEVV
# B2: GBRAP_160_4864 (protein)
# chain: SEKLEEALKILEEARKRALEVIEEAPASDRAAFAESEMGAAILELVEKGLITDELEDKLMEIADRLRAELRANADASVEEHKALVEKAFEEAMETVKKMS
# B3: GBRAP_74_6525 (protein)
# chain: DEKLLEELKKAAEAGDVEKAVELAREIIKTGSLEAIEKAAEILVEFVEKNIEKLTKEELELLSETLAELADKLMELGGKSEVVKKVAQAAVELEKKAEEL
# B4: GBRAP_11_2627 (protein)
# chain: KKEILEKMAELAERLAELLERLLEEGVDNEELRKEAEEVLEELTKLEKEYGDEADKKLVEIAREEWEKALEDEENAEEYLRRALAAARVLAGNYLLDIEE
# B5: GBRAP_160_4721 (protein)
# chain: EKKIEEFAKEALEELLEAVELSEGESREEARAIFEGAAGEVLMDAFEDPRFTDEMEDVVAEILDELVEELVANYDASLEEKKEIVKEKIEELKKELLKIA
# B6: GBRAP_52_6209 (protein)
# chain: MEEKARKLAEELYELMKAGDREGARKLAREIAETLDDEELEIFFKEFVELAKKARPEDHDLIFELAELIAEELLKEGRDEVLADDLLNSVAAALYENELK
# B7: GBRAP_11_2913 (protein)
# chain: KLENLKKIAELLEKLVETLKKLLEEGVDNEELFKKALELAEKALELIKENFDESDADLAQEAVRELKKAKEDPETAREHVERALAIARVLLGQALLEIEE
# B8: GBRAP_52_6231 (protein)
# chain: MEAEARARVEEMLALVRAGDLEGARALAREIAETYDDEELEVVIDALAALARAAPLEEAPLFEKAAEILAEVFEELGKDEVLIDLLEARVAAALYERELA
# B9: GBRAP_184_5079 (protein)
# chain: TTLERLIEAETDEELLAKVDAVLAEAAAQKADLVVLVDKPGLTVETVLEIIDRLGAAKKAGKVPRVTVGIDEEFTEEEIDIILKRADEEGVRVVLPIKDE
# B10: GBRAP_160_4848 (protein)
# chain: EEKKKKIEEEFNEAREFVLSLIPEVSVEQLANAFDAEIGTVALELLEEGIINEEAEDVAIEKADEARAELLAAKDASPEELKELITEKVEEMIEEVKKLL
# B11: GBRAP_11_2617 (protein)
# chain: KKEALKKAAKLAKELAKVVKKLIEEGVDNEELRAEAEKLLKELKKLTEEELDEAHKTEVEVVEELWAEAKADPENALAYAEQLLAALRVLEGNYLLDIEE
# B12: GBRAP_9_7169 (protein)
# chain: DEEKKKKIKEIVLEAFEEILKVVPEEKRPIVEEKKKEAEKRLEELLKDPNTTVEEFKEEAKKLLRDLVEELKKAVDPTTAAAVEAIALTAEEEIDEVLEE
# B13: GBRAP_83_6983 (protein)
# chain: KEKITVVFPGDKIEDAPKIVEDLTKEEGYEVDVEILATREDIPKVKEMVKEIAELGLEVNIDILLFGATEEEAKELKEELEKIAKEAGVNIKVNVEVEEE
# B14: GBRAP_80_6809 (protein)
# chain: AEEELAAALAEIEAIDPELAKRLKRIVELAKEMGVSLETLAEFAKAAAKLAKIDVEKAKELLEETEELLEEEKERGDTENAEAVLRVFAGQMLLEVEELE
# B15: GBRAP_78_6576 (protein)
# chain: EVEELIDEAIELLGKAGSLLSKIKTEEAQEILDLVIDAMDDLLEAEENGFDLELIEEALKKVEEALKKAKKIKTEEAKEIAKLLEEAKEKLEEAIKLLKK
# B16: GBRAP_160_4599 (protein)
# chain: SPETEKLLKELDEIVEETKKLIEGQSREEQLAIIRVGFGEILLELSLSPIVSDETEEKAAKIMDETIATIESNPDLTLEEIKALIDEALEKIKEAIKKDS
# B17: GBRAP_11_2606 (protein)
# chain: KKEKLKEAAKLAEELAKTVQQLLKEGVDDEKLLKEIEKLIKELRKLVKEELDEAHQRDVEVIEELWKEAKEDPENREFYLKQLQAAAEVLSGNYLLEIEE
# B18: GBRAP_78_6647 (protein)
# chain: EVEKLIDEALKHLDEAAKLARKLPEEERNELLAEITEASSYLLLSEEEGFDLKLLEEALKKLEEARKLVEKLDSPEAPAIKKELDKAIKLVKEAIKLVKA
# B19: GBRAP_78_6641 (protein)
# chain: KVEELLDKAIEHIRKARKLAKKLPEEVRNELLAELVEAESYILEAEENGFDLEKLEEAIKELEKALEIVEKSDHPEAPEIKEELEKAIKLLKEAVKLVKE
# B20: GBRAP_128_3467 (protein)
# chain: STEEAVAYARETMEAIEKANLEEARKLARELAERLLTLSLEEVEAVVEAIEEMLPKLSAEKLEILADVLAEARPQMTPEKAALVADVESDALLLAEELEE
# B21: GBRAP_53_6428 (protein)
# chain: SEEKIKELKKKIKELAEKATKADEEEAKKLIEEIVKLLEELKKAGAPDEEITKLVEEIARKLKEAGVSDSLLVELANGLAKMGLEEATAAVAEEIVEELE
# B22: GBRAP_125_3085 (protein)
# chain: AVAEALAAAGLILRAAGFSDEEVEEFRRLSADSSVKAVFNALAYLLLDEEEALKAEELSPEEALAVLRRVAARIEAHPDLTPEEVRALLAEEIDRALAAA
# B23: GBRAP_78_6636 (protein)
# chain: ELEEEIDKKFRELDEILRKTEWASEEARDEALDEFVEAGSHHIELEEDPNNVEAAEEAAKHTEKLAEIAKKGALTLKDELVAAAKKLAEAYKKYAEELKK
# B24: GBRAP_52_6074 (protein)
# chain: KEEEIKKMAEEIYKAIKEGNKEKALKLLEEAIKKFSVEEITKMLELTAKLVASLGDEAHELFVDVLLEGEDLLLEAGISEDDALLIVGAAEAALAKAVAA
# B25: GBRAP_52_6149 (protein)
# chain: SAARAAAYARAFVAAVRAGDEARARAIMEEIAATMSDEEIAAFFAELARLVATLTPEEKERVVELAIEFEDIAIAAGHDEDLMSYQLARVAGAAYDALQA
# B26: GBRAP_125_3058 (protein)
# chain: SKEEAIEDLEELARALGYSEDEIAELRELARASSIKNTLIAIALAEGNEELAEALEKLSEEEVIKVLKEVAEELKANPDLTPEEVLALLLETAKKALEES
# B27: GBRAP_128_3469 (protein)
# chain: MTEEAVERTRKILEEMKKASPEEARELFKELFEWLLTLPLEVVEAVVEEIEKHLPELSAEKLEILAEVADEAMPKATPEKAALLADLRSSALLEAEKLEE
# B28: GBRAP_160_4190 (protein)
# chain: SEEVEKLIKEIKEIAEEAIELIKGQTYEERLVIVEGAFGQIIMLVMESDVVSDEAEEKIAEVADEAVEYLKKNPNLTEEEIKKLIKEATEKIIEIIKKYS
# B29: GBRAP_128_3352 (protein)
# chain: LDEARLARVRAMADAMVEADVATAAALMRELAAFINTLDDAEAEAAADIVIEALPRFTVEKLDAIADALRAARPEADPLKANLLADVEVAALNEAEELEE
# Target: GABARAP, O95166
# Sequence (O95166 whole entry, the tested form may be a part): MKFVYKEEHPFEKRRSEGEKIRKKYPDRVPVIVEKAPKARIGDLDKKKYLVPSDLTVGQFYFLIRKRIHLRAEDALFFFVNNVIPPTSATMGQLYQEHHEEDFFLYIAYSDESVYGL
# Test: median log2 fold change of GCK-ALFA target abundance (FLAG IP / Myc IP barcode read proportion) (log2 ratio); each designed protein is fused to an ALFA-tag nanobody in HEK293 cells to bring the named protein to FLAG-tagged glucokinase (GCK); Myc marks an untargeted standard; higher = target protein stabilised (more abundant)
# Conditions: target protein: 3xFLAG-MCP-GCK-ALFA reporter; HEK293 landing pad (RPLP)
# Method in brief: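 Sequencing of reverse-transcribed, amplified circular RNA barcodes from anti-FLAG and anti-Myc immunoprecipitates provided the readout for an ALFA-nanobody-fused binder library recombined into HEK293 landing-pad cells. Those cells were induced with 2 μg mL^−1 doxycycline, transfected with a plasmid expressing a FLAG-tagged target and a Myc-tagged standard, and lysed after 48 h. Target abundance is the per-binder median log2 ratio of FLAG to Myc barcode read proportions. Only barcodes at a proportion of ≥10^−7 in both replicates and binders with ≥3 barcodes per replicate were kept, with a 10^−6 pseudocount added before the two replicates were pooled.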
row,Binder,median log2 fold change
1,B1,0.0822
2,B2,0.128
3,B3,0.284
4,B4,0.153
5,B5,-0.419
6,B6,0.0262
7,B7,0.096
8,B8,0.225
9,B9,-0.178
10,B10,0.0244
11,B11,0.18
12,B12,0.202
13,B13,0.157
14,B14,0.0503
15,B15,-0.0785
16,B16,0.0702
17,B17,0.264
18,B18,0.36
19,B19,0.191
20,B20,-0.0714
21,B21,0.303
22,B22,0.0772
23,B23,0.253
24,B24,-0.0793
25,B25,-0.0576
26,B26,0.00382
27,B27,0.314
28,B28,0.0673
29,B29,-0.0137
